Measured values published in ChEMBL document CHEMBL4888484, “Replenishing the malaria drug discovery pipeline: Screening and hit evaluation of the MMV Hit Generation Library 1 (HGL1) against asexual blood stage Plasmodium falciparum ,using a nano luciferase reporter read-out” (2022).
About 540 (0.36%) of roughly 150,000 compounds showed an effect of 50% or more. The list shows a part of the results.

These molecules were tested on Plasmodium falciparum (assay: Primary screen in NF54 nanoGlo assay, in single point, at 2uM, 72h; a lower Z score goes with more inhibition). Details: timepoint 72 hour.
Type: functional, Erythrocyte
In the case of Cn1cc(C(=O)N(CC(F)F)c2cccc(Cl)c2)ccc1=O, the “% Inhibition” value is reported as -15% and the Z score is reported as 1.55. With O=C1NCCN(Cc2cccs2)[C@H]1CC(=O)N1CCN(c2ccccc2)CC1 the “% Inhibition” value was -14% and the Z score was 1.26. In the case of CCc1nc2ccccc2n1[C@@H](CC)C(=O)N1CCS(=O)(=O)CC1, the “% Inhibition” value is reported as 2% and the Z score is reported as -0.3. In the case of O=C(NCCN1CCCCC1)c1ccsc1, the “% Inhibition” value is reported as -15% and the Z score is reported as 2.35. CC(C)(C)OC(=O)N1CCC(c2c(C(=O)N3CCN(C(=O)c4ccco4)CC3)cnn2C(C)(C)C)CC1 was tested, and the “% Inhibition” value was -6% and the Z score was 0.94. C[C@]1(COc2ccncc2)CCCN(Cc2ccccc2F)C1 was tested, and the “% Inhibition” value was -3% and the Z score was 0.37. For COc1c(F)ccc(F)c1C(=O)Nc1nn(-c2ccccc2Cl)cc1C, the “% Inhibition” value was -17% and the Z score was 1.96. With Cc1cccc(C(=O)N/C(=N/c2ccc3c(c2)OCCO3)NCCN2CCOCC2)c1 the “% Inhibition” value was -32% and the Z score was 2.93. In the case of O=C1CC[C@H](C(=O)NC2CC2c2ccccc2C(F)(F)F)N1 (stereo partly specified), the “% Inhibition” value is reported as 1% and the Z score is reported as -0.15. In the case of COc1ccc(CNC(=O)Cn2ccc3ccc(N4CCCCC4)nc32)c(OC)c1, the “% Inhibition” value is reported as -12% and the Z score is reported as 1.63. For Cc1ocnc1CNC(=O)NC1(Cc2ccccc2)CCCC1, the “% Inhibition” value was 32% and the Z score was -3.63. In the case of O=C(C1CCN(S(=O)(=O)c2ccc(-c3noc(-c4cc(Cl)ccc4Cl)n3)cc2)CC1)N1CCCC1, the “% Inhibition” value is reported as -16% and the Z score is reported as 1.95. In the case of NC(=NCc1c(F)cccc1F)N1CCN(c2ccc(F)cc2)CC1, the “% Inhibition” value is reported as -10% and the Z score is reported as 1.44. With Cc1nonc1CNS(=O)(=O)CC1CCCC1 the “% Inhibition” value was -9% and the Z score was 1.64. CN(C(=O)NCCOc1cccc(Br)c1)[C@H]1CCOC1 was tested, and the “% Inhibition” value was -7% and the Z score was 1.21. For CC1CCN(c2nc3c(O)ncnc3n2C2OC(CO)C(O)C2O)CC1 (stereo unspecified), the “% Inhibition” value was 6% and the Z score was -1.22. With CCCS(=O)(=O)N1CC(c2nc(CCOCC3CCOCC3)no2)C1 the “% Inhibition” value was -11% and the Z score was 1.42. In the case of CN(Cc1ccccc1OCc1c(F)cccc1Cl)C[C@H]1CCOC1, the “% Inhibition” value is reported as -5% and the Z score is reported as 0.63. For CC(c1nnnn1C)N1CC(C)(C)C1C1CCCO1 (stereo unspecified), the “% Inhibition” value was -10% and the Z score was 1.38. In the case of Cc1ccc(S(=O)(=O)NCc2nc(-c3ccccc3)oc2C)c(C)c1, the “% Inhibition” value is reported as -1% and the Z score is reported as 0.22. CCN1CCC(NC(=O)C(C)(C)C#N)C1c1cc(F)c(F)c(F)c1 (stereo unspecified) was tested, and the “% Inhibition” value was -7% and the Z score was 0.63. With Fc1ccc(F)c(-c2nc(-c3ccnc(N4CCCC4)c3)no2)c1 the “% Inhibition” value was -11% and the Z score was 1.63. In the case of COCc1nsc(N2CCC[C@H](c3nncn3C)C2)n1, the “% Inhibition” value is reported as 0% and the Z score is reported as 0.01. In the case of CN(Cc1csc(-c2ccccc2)n1)C(=O)c1cc(C2CC2)no1, the “% Inhibition” value is reported as -12% and the Z score is reported as 2.19. With CCn1nnc(C)c1C(=O)NC[C@H](C)c1ccccn1 the “% Inhibition” value was -16% and the Z score was 2.37. In the case of CC(=O)N[C@@H](C(N)=O)c1nnc(-c2ccc(C)cc2)o1, the “% Inhibition” value is reported as -8% and the Z score is reported as 1.06. In the case of Cc1cc(O[C@H]2CCN(C(=O)c3ccncc3)C2)nc(C)n1, the “% Inhibition” value is reported as 0% and the Z score is reported as 0.01. With CCN(C(=O)CS(=O)(=O)c1ccc(Br)cc1)C1CC1 the “% Inhibition” value was -4% and the Z score was 0.48. In the case of CC(C)c1cc(C(=O)N2C[C@@H](c3ccccc3Cl)OCC2(C)C)no1, the “% Inhibition” value is reported as 5% and the Z score is reported as -0.62. For COc1cc(Nc2ncccc2S(=O)(=O)Nc2ccc(C)c(C)c2)cc(OC)c1OC, the “% Inhibition” value was -3% and the Z score was 0.37. With O=C(O)[C@H](Cc1ccccc1)Nc1nc(C(F)(F)F)ns1 the “% Inhibition” value was -3% and the Z score was 0.65. CC1(C)CC(=O)c2ccc(OCC3CCN(C(=O)C(C)(C)C)CC3)cc2O1 was tested, and the “% Inhibition” value was -6% and the Z score was 0.76. For CC1CCCC(NC(=O)CN2C(=O)COc3ccc(Cl)cc32)C1C (stereo unspecified), the “% Inhibition” value was -5% and the Z score was 0.91. For Cc1cccc(NC(=O)[C@H]2CC(=O)OC2(C)C)c1, the “% Inhibition” value was -3% and the Z score was 0.44. With O=C(Nc1ccn(-c2ccc(Cl)cc2Cl)n1)c1cccnc1 the “% Inhibition” value was 8% and the Z score was -1.21. With CCC1CCC(NCC(C)(C)CN(C)C)CC1 (stereo unspecified) the “% Inhibition” value was -4% and the Z score was 0.82. In the case of Cc1cccc(-n2c(=O)[nH]c3nc(N4CCCC4)ncc3c2=O)c1C, the “% Inhibition” value is reported as -4% and the Z score is reported as 0.62. With Cc1nc2c(s1)[C@@H](N(C)S(=O)(=O)C1(Cl)CC1)CCC2 the “% Inhibition” value was -11% and the Z score was 1.28. CCO[C@H]1[C@H](NC(=O)c2cccnc2)c2ccccc2C12CCN(C(=O)C#Cc1ccccc1)CC2 was tested, and the “% Inhibition” value was -7% and the Z score was 0.95. In the case of N#Cc1c(NC(=O)c2ccc3ccccc3n2)sc2c1CCCC2, the “% Inhibition” value is reported as -5% and the Z score is reported as 0.65. CC(=O)N[C@H]1CCCN(Cc2cc(CN3CCN(C)CC3)c(C)cc2C)C1 was tested, and the “% Inhibition” value was -5% and the Z score was 0.66. With CC1CCC(C)N1C(=O)C1=CCCCO1 (stereo unspecified) the “% Inhibition” value was -11% and the Z score was 1.12. With O[C@@]1(CNCc2noc(-c3ccco3)n2)CCCN2CCCC[C@@H]21 the “% Inhibition” value was -10% and the Z score was 1.84. For COc1ccc(NC(=O)[C@@H]2CCCN2S(=O)(=O)c2ccc3c(c2)OCCO3)cc1OC, the “% Inhibition” value was -3% and the Z score was 0.39. In the case of CO[C@H]1CS(=O)(=O)C[C@@H]1NS(=O)(=O)c1cccc(C)c1, the “% Inhibition” value is reported as 3% and the Z score is reported as -0.47. Cc1noc2ncnc(N3CCC4(CC3)CC(=O)N(Cc3ccccc3)C4)c12 was tested, and the “% Inhibition” value was -6% and the Z score was 0.71. For Cn1c(=O)c2c(c(-c3ccccc3)cn2C)n(CC(=O)Nc2ccc(Br)cc2F)c1=O, the “% Inhibition” value was -8% and the Z score was 1.11. For CC(C)c1cc(C(=O)N2CCCCCC2)no1, the “% Inhibition” value was -2% and the Z score was 0.19. For COCCN(Cc1cc(NC(=O)CC(C)C)ccc1N(C)C)C(=O)C(C)C, the “% Inhibition” value was -18% and the Z score was 2.55. For Cc1cc(C)c(S(=O)(=O)N2c3ccccc3Oc3nc4ccccc4nc32)c(C)c1, the “% Inhibition” value was -14% and the Z score was 1.6. In the case of Cc1ccc(Br)c2[nH]c(C(=O)N3CC[C@H](O)C3)cc12, the “% Inhibition” value is reported as 3% and the Z score is reported as -0.31. In the case of O=C(CCc1ccccc1)N[C@H]1CC[C@H](Oc2ncc(F)cn2)CC1, the “% Inhibition” value is reported as -10% and the Z score is reported as 1.77. With O=C(CCN1CCCO1)N1CC[C@@]2(CCCN(CCc3ccccc3)C2)C1 the “% Inhibition” value was -24% and the Z score was 2.15.
